No constants are given. Whether binding was seen depends on the method and setting. Binding seen in cells or lysates may run through a third protein. Some entries that bind do so weakly or less than the wild type. Where a sequence is shown, tags or fusion partners need not be part of it.
How the values were obtained:
[1] = biological target: cyclin B1 (293T cells) (human (endogenous in 293T)), P14635; test: co-IP; conditions: remark: other sources report otherwise
[2] = biological target: T1, Flag-tagged pUL97 (full-length) (human cytomegalovirus (HCMV)), P16788; test: co-IP; conditions: remark: other sources report otherwise
T1 chain: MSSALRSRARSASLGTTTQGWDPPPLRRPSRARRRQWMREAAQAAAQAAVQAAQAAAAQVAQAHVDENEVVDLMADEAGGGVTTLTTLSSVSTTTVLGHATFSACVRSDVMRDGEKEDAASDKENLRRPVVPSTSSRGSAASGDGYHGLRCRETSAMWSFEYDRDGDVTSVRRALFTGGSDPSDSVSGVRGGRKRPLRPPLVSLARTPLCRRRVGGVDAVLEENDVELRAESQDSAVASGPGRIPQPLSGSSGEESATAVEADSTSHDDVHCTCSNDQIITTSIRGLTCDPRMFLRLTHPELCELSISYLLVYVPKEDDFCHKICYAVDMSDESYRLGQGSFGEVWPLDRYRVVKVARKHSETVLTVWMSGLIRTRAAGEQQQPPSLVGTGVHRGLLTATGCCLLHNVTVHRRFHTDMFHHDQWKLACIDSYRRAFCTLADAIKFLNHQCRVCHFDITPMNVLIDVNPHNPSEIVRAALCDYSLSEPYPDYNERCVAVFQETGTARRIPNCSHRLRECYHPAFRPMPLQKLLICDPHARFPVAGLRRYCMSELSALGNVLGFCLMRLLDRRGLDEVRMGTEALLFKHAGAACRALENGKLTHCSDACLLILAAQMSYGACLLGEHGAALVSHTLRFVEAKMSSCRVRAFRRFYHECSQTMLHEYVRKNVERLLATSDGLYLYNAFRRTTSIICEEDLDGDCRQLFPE

B1: Flag-tagged pUL97 (full-length), P16788 1-707 (enzyme)
chain: MSSALRSRARSASLGTTTQGWDPPPLRRPSRARRRQWMREAAQAAAQAAVQAAQAAAAQVAQAHVDENEVVDLMADEAGGGVTTLTTLSSVSTTTVLGHATFSACVRSDVMRDGEKEDAASDKENLRRPVVPSTSSRGSAASGDGYHGLRCRETSAMWSFEYDRDGDVTSVRRALFTGGSDPSDSVSGVRGGRKRPLRPPLVSLARTPLCRRRVGGVDAVLEENDVELRAESQDSAVASGPGRIPQPLSGSSGEESATAVEADSTSHDDVHCTCSNDQIITTSIRGLTCDPRMFLRLTHPELCELSISYLLVYVPKEDDFCHKICYAVDMSDESYRLGQGSFGEVWPLDRYRVVKVARKHSETVLTVWMSGLIRTRAAGEQQQPPSLVGTGVHRGLLTATGCCLLHNVTVHRRFHTDMFHHDQWKLACIDSYRRAFCTLADAIKFLNHQCRVCHFDITPMNVLIDVNPHNPSEIVRAALCDYSLSEPYPDYNERCVAVFQETGTARRIPNCSHRLRECYHPAFRPMPLQKLLICDPHARFPVAGLRRYCMSELSALGNVLGFCLMRLLDRRGLDEVRMGTEALLFKHAGAACRALENGKLTHCSDACLLILAAQMSYGACLLGEHGAALVSHTLRFVEAKMSSCRVRAFRRFYHECSQTMLHEYVRKNVERLLATSDGLYLYNAFRRTTSIICEEDLDGDCRQLFPE
binding [1]: binds

B2: cyclin H (293T cells), P51946 1-323 (protein)
chain: MYHNSSQKRHWTFSSEEQLARLRADANRKFRCKAVANGKVLPNDPVFLEPHEEMTLCKYYEKRLLEFCSVFKPAMPRSVVGTACMYFKRFYLNNSVMEYHPRIIMLTCAFLACKVDEFNVSSPQFVGNLRESPLGQEKALEQILEYELLLIQQLNFHLIVHNPYRPFEGFLIDLKTRYPILENPEILRKTADDFLNRIALTDAYLLYTPSQIALTAILSSASRAGITMESYLSESLMLKENRTCLSQLLDIMKSMRNLVKKYEPPRSEEVAVLKQKLERCHSAELALNVITKKRKGYEDDDYVSKKSKHEEEEWTDDDLVESL
binding [2]: no binding
